Patent US20090082368A1, “METHODS OF MODULATING NEUROTROPHIN-MEDIATED ACTIVITY” (PainCeptor Pharma Corporation, priority 2007, published 2009)
Read-outs that look alike come from different tables or passages of the source. For at least one compound, name, drawing or mass did not settle the structure.

System: NGF receptors on PC12 cells (TrkA+p75)
Test: NGF binding (125I-NGF) using PC12 cells
Set-up: species or system rat
Experimental: NGF binding was evaluated using methods familiar to those who are skilled in the art. Briefly, cells expressing one or both NGF receptors (PC12: TrkA+p75; A875: p75 alone; HEK/CHO_trkA: TrkA alone) were harvested by replacing the medium with the cell dissociation buffer (Amersham) and incubating at 37° C. for 15 min. […] For most compounds, multiple dose-response curves were generated.
The IC50 data shown in Tables A-J were acquired using the procedure described herein using PC12 cells.

[1] = Table F (Formula IV), NGF binding, PC12 cells, read-out: IC50
[2] = Table J (Formula VIII), NGF binding, PC12 cells, read-out: IC50
[3] = Table H (Formula VI), NGF binding, PC12 cells, read-out: IC50
[4] = Table A (Formula Ia), NGF binding, PC12 cells, read-out: IC50
[5] = Table 2, read-out: NGF Binding Assay IC50
[6] = Table D (Formula III), NGF binding, PC12 cells, read-out: IC50
[7] = Table C (Formula II), NGF binding, PC12 cells, read-out: IC50
[8] = Table 3, read-out: NGF Binding Assay IC50
[9] = Table B (Formula Ib), NGF binding, PC12 cells, read-out: IC50
[10] = Table G (Formula V), NGF binding, PC12 cells, read-out: IC50

SMILES: Nc1cc(C(=O)O)cc(N2C(=O)c3ccc4c5c(ccc(c35)C2=O)C(=O)N(C(CCC(=O)O)C(=O)O)C4=O)c1 (stereo not drawn) [Compound 17D]
- IC50 [1]: 30 to 50 µM

SMILES: O=C(O)CCCN1C(=O)c2cccc3c(-c4nnn[nH]4)ccc(c23)C1=O [Compound 48G]
- IC50 [2]: < 10 µM

SMILES: O=C(O)CCCn1c(=O)c2ccc3nc4c5cc6c(=O)oc(=O)c6cc5c(=O)n4c4ccc(c1=O)c2c34 [Compound 5F]
- IC50 [3]: < 10 µM

SMILES: CC(=O)Nc1cc(C(=O)O)cc(N2C(=O)c3ccc(C(=O)O)cc3C2=O)c1 [Compound 8]
- IC50 [4]: 30 to 50 µM

SMILES: O=C(O)CCCN1C(=O)c2ccc(-c3ccc4c(c3)C(=O)N(CCCc3nnn[nH]3)C4=O)cc2C1=O [Compound 23C]
- IC50 [5]: 0.1 to 2 µM
- IC50 [6]: < 10 µM

SMILES: O=C(O)CCCN1C(=O)c2ccc3c4c(ccc(c24)C1=O)C(=O)N(CCCC(=O)O)C3=O [Compound 2D]
- IC50 [1]: < 10 µM

SMILES: O=C(O)C(Cc1ccccc1)N1C(=O)c2ccc3c4c(ccc(c24)C1=O)C(=O)N(C(Cc1ccccc1)C(=O)O)C3=O (stereo not drawn) [Compound 5D]
- IC50 [1]: 30 to 50 µM

SMILES: O=C(O)CCCn1c(=O)c2cc3c(=O)n(CCCC(=O)O)c(=O)c3cc2c1=O [Compound 2B]
- IC50 [7]: 30 to 50 µM

SMILES: O=C(O)CCCN1C(=O)c2ccc(-c3ccc4c(c3)C(=O)N(CCCC(=O)O)C4=O)cc2C1=O [Compound 1C]
- IC50 [5]: 0.1 to 2 µM
- IC50 [6]: < 10 µM

SMILES: O=C(O)CCCN1C(=O)c2ccc(C(=O)c3ccc4c(c3)C(=O)N(CCCC(=O)O)C4=O)cc2C1=O [Compound 3C]
- IC50 [6]: 10 to 29 µM

SMILES: Nc1ccc(C(=O)O)cc1N1C(=O)c2ccc(C(=O)c3ccc4c(c3)C(=O)N(c3cc(C(=O)O)ccc3N)C4=O)cc2C1=O [Compound 30C]
- IC50 [6]: < 10 µM

SMILES: COc1ccc(C(=O)O)cc1N1C(=O)c2ccc3c4c(ccc(c24)C1=O)C(=O)N(C(CCC(=O)O)C(=O)O)C3=O (stereo not drawn) [Compound 14D]
- IC50 [1]: < 10 µM

SMILES: O=C(O)CCCCCCCN1C(=O)c2ccc(-c3ccc4c(c3)C(=O)N(CCCCCCCC(=O)O)C4=O)cc2C1=O [Compound 22C]
- IC50 [5]: 0.1 to 2 µM
- IC50 [6]: < 10 µM

SMILES: O=C(O)CCCN1C(=O)c2ccc(Oc3ccc4c(c3)C(=O)N(CCCC(=O)O)C4=O)cc2C1=O [Compound 5C]
- IC50 [6]: > 50 µM

SMILES: O=C(O)CCN1C(=O)c2ccc(Cc3ccc4c(c3)C(=O)N(CCC(=O)O)C4=O)cc2C1=O [Compound 16C]
- IC50 [6]: 30 to 50 µM

SMILES: O=C(O)CCCN1C(=O)c2cccc3cc(-c4cnn[nH]4)cc(c23)C1=O [Compound 54G]
- IC50 [2]: < 30 µM

SMILES: Nc1ccc(C(=O)O)cc1N1C(=O)c2ccc3c4c(ccc(c24)C1=O)C(=O)N(C(CCC(=O)O)C(=O)O)C3=O (stereo not drawn) [Compound 9D]
- IC50 [5]: 0.1 to 2 µM
- IC50 [8]: < 1 µM
- IC50 [1]: < 10 µM

SMILES: N#Cc1ccc(N2C(=O)c3ccc(C(=O)O)cc3C2=O)cc1 [Compound 5]
- IC50 [4]: 10 to 29 µM

SMILES: O=C(O)CCCN1C(=O)c2cc(Br)c(-c3cc4c(cc3Br)C(=O)N(CCCC(=O)O)C4=O)cc2C1=O [Compound 20C]
- IC50 [6]: < 10 µM

SMILES: N#Cc1cc2c3c(cccc3c1)C(=O)N(CCCc1nnn[nH]1)C2=O [Compound 51G]
- IC50 [2]: < 10 µM

SMILES: Nc1ccc(C(=O)O)cc1N1C(=O)c2ccc(Oc3ccc4c(c3)C(=O)N(c3cc(C(=O)O)ccc3N)C4=O)cc2C1=O [Compound 6C]
- IC50 [6]: 30 to 50 µM

SMILES: O=C(O)CC(O)CN1C(=O)c2ccc(-c3ccc4c(c3)C(=O)N(CC(O)CC(=O)O)C4=O)cc2C1=O (stereo not drawn) [Compound 12C]
- IC50 [6]: < 10 µM

SMILES: O=C(O)CCCN1C(=O)c2ccc(Cc3ccc4c(c3)C(=O)N(CCCC(=O)O)C4=O)cc2C1=O [Compound 15C]
- IC50 [6]: > 50 µM

SMILES: COc1cc2c(cc1-c1cc3c(cc1OC)C(=O)N(CCC(=O)O)C3=O)C(=O)N(CCC(=O)O)C2=O [Compound 29C]
- IC50 [6]: < 10 µM

SMILES: O=C1c2ccc(-c3ccc4c(c3)C(=O)N(CCCS(=O)(=O)O)C4=O)cc2C(=O)N1CCCS(=O)(=O)O [Compound 11C]
- IC50 [5]: 0.1 to 2 µM
- IC50 [6]: < 10 µM

SMILES: N#Cc1ccc2c3c(cccc13)C(=O)N(CCCc1nnn[nH]1)C2=O [Compound 52G]
- IC50 [2]: < 10 µM

SMILES: O=C(O)CCCCCCN1C(=O)c2ccc(-c3ccc4c(c3)C(=O)N(CCCCCCC(=O)O)C4=O)cc2C1=O [Compound 21C]
- IC50 [5]: 0.1 to 2 µM
- IC50 [6]: < 10 µM

SMILES: O=C1c2cccc(O)c2C(=O)N1c1cccc(C(F)(F)F)c1 [Compound 15]
- IC50 [4]: > 50 µM

SMILES: Nc1ccc(C(=O)O)cc1N1C(=O)c2ccc(-c3ccc4c(c3)C(=O)N(c3cc(C(=O)O)ccc3N)C4=O)cc2C1=O [Compound 31C]
- IC50 [6]: 10 to 29 µM

SMILES: O=C(O)CCCN1Cc2cc(Cl)ccc2C1=O [Compound 6A]
- IC50 [9]: > 50 µM

SMILES: O=C(O)CCC(C(=O)O)N1C(=O)c2ccc3c4c(ccc(c24)C1=O)C(=O)N(C(CCC(=O)O)C(=O)O)C3=O (stereo not drawn) [Compound 4D]
- IC50 [1]: > 50 µM

SMILES: Cc1cc2c(cc1-c1cc3c(cc1C)C(=O)N(CCC(=O)O)C3=O)C(=O)N(CCC(=O)O)C2=O [Compound 25C]
- IC50 [6]: 10 to 29 µM

SMILES: COc1cc2c(cc1-c1cc3c(cc1OC)C(=O)N(CCCC(=O)O)C3=O)C(=O)N(CCCC(=O)O)C2=O [Compound 28C]
- IC50 [6]: < 10 µM

SMILES: O=C(O)CCN1C(=O)c2ccc(-c3ccc4c(c3)C(=O)N(CCC(=O)O)C4=O)cc2C1=O [Compound 9C]
- IC50 [5]: 0.1 to 2 µM
- IC50 [6]: < 10 µM

SMILES: CCOC(=O)c1cccc(N2Cc3cc(Cl)ccc3C2=O)c1 [Compound 16A]
- IC50 [9]: > 50 µM

SMILES: O=C(O)CCCCCN1C(=O)c2ccc(-c3ccc4c(c3)C(=O)N(CCCCCC(=O)O)C4=O)cc2C1=O [Compound 19C]
- IC50 [5]: 0.1 to 2 µM
- IC50 [6]: < 10 µM

SMILES: O=C(O)CCCNC(=O)c1ccc2c(c1)C(=O)N(CCCC(=O)O)C2=O [Compound 30]
- IC50 [4]: > 50 µM

SMILES: Cc1ccc(C(=O)O)cc1N1C(=O)c2ccc3c4c(ccc(c24)C1=O)C(=O)N(C(CCC(=O)O)C(=O)O)C3=O (stereo not drawn) [Compound 16D]
- IC50 [1]: > 50 µM

SMILES: O=C(O)CCCn1c(=O)c2ccc3nc4n(c5ccc(c1=O)c2c35)C(=O)c1ccccc1-4 [Compound 4F]
- IC50 [3]: < 10 µM

SMILES: O=C(O)CCCN1C(=O)c2ccc3c4c(ccc(c24)C1=O)C(=O)N(c1cc(C(=O)O)ccc1Cl)C3=O [Compound 10D]
- IC50 [1]: < 10 µM

SMILES: N#CCCN1C(=O)c2ccc(-c3ccc4c(c3)C(=O)N(CCCC(=O)O)C4=O)cc2C1=O [Compound 27C]
- IC50 [6]: < 10 µM

SMILES: O=C(O)c1ccc(O)c(N2C(=O)c3ccc4c5c(ccc(c35)C2=O)C(=O)N(c2cc(C(=O)O)ccc2O)C4=O)c1 [Compound 13D]
- IC50 [1]: 10 to 29 µM

SMILES: Nc1cc(C(=O)O)ccc1N1C(=O)c2ccc([N+](=O)[O-])cc2C1=O [Compound 19]
- IC50 [4]: 30 to 50 µM

SMILES: O=C(O)Cc1ccc(N2C(=O)c3ccc(C(=O)O)cc3C2=O)cc1 [Compound 10]
- IC50 [4]: > 50 µM

SMILES: N#Cc1ccc2c(c1)CN(c1cc(C(=O)O)ccc1Cl)C2=O [Compound 10A]
- IC50 [9]: > 50 µM

SMILES: Nc1ccc(C(=O)O)cc1N1C(=O)c2ccc3c4c(ccc(c24)C1=O)C(=O)N(C(CCC(=O)OCc1ccccc1)C(=O)O)C3=O (stereo not drawn) [Compound 11D]
- IC50 [1]: < 10 µM

SMILES: O=C(O)c1ccc(Cl)c(N2C(=O)c3ccc4c5c(ccc(c35)C2=O)C(=O)N(c2cc(C(=O)O)ccc2Cl)C4=O)c1 [Compound 3D]
- IC50 [8]: < 1 µM
- IC50 [1]: < 10 µM

SMILES: O=C(O)CCC(C(=O)O)N1C(=O)c2ccc3c4c(ccc(c24)C1=O)C(=O)N(c1cc(C(=O)O)ccc1O)C3=O (stereo not drawn) [Compound 15D]
- IC50 [1]: > 50 µM

SMILES: CCOC(=O)c1cccc(N2Cc3cc(Br)ccc3C2=O)c1 [Compound 2A]
- IC50 [9]: > 50 µM

SMILES: COC(=O)c1ccc(N2Cc3cc(C(=O)O)ccc3C2=O)cc1 [Compound 14A]
- IC50 [9]: 30 to 50 µM

SMILES: CCOC(=O)CCCN1Cc2cc(Br)ccc2C1=O [Compound 1A]
- IC50 [9]: > 50 µM

SMILES: O=C(O)c1ccc(Cl)c(-n2c(=O)c3cc4c(=O)n(-c5cc(C(=O)O)ccc5Cl)c(=O)c4cc3c2=O)c1 [Compound 1B]
- IC50 [7]: < 10 µM

SMILES: O=C(O)CN1C(=O)c2ccc3c4c(ccc(c24)C1=O)C(=O)N(CC(=O)O)C3=O [Compound 6D]
- IC50 [1]: 10 to 29 µM

SMILES: N#Cc1ccc(N2C(=O)c3ccc(-c4ccc5c(c4)C(=O)N(c4ccc(C#N)cc4)C5=O)cc3C2=O)cc1 [Compound 32C]
- IC50 [6]: 10 to 29 µM

SMILES: O=C1c2ccc(-c3ccc4c(c3)C(=O)N(CCCc3nnn[nH]3)C4=O)cc2C(=O)N1CCCc1nnn[nH]1 [Compound 14C]
- IC50 [6]: < 10 µM

SMILES: Nc1ccc(C(=O)O)cc1N1C(=O)c2ccc3c4c(ccc(c24)C1=O)C(=O)N(CCCC(=O)O)C3=O [Compound 12D]
- IC50 [1]: < 10 µM

SMILES: O=C(O)c1ccc(Cl)c(N2C(=O)c3ccc(Oc4ccc5c(c4)C(=O)N(c4cc(C(=O)O)ccc4Cl)C5=O)cc3C2=O)c1 [Compound 7C]
- IC50 [6]: 10 to 29 µM

SMILES: O=C(O)c1ccc(Cl)c(N2C(=O)c3ccc4c(=O)n5c6ccccc6nc5c5ccc(c3c45)C2=O)c1 [Compound 3E]
- IC50 [10]: < 10 µM

SMILES: O=C(O)CCCN1C(=O)c2cccc3cc(-c4cnc[nH]4)cc(c23)C1=O [Compound 53G]
- IC50 [2]: < 20 µM

SMILES: N#CCCN1C(=O)c2ccc(-c3ccc4c(c3)C(=O)N(CCC(=O)O)C4=O)cc2C1=O [Compound 26C]
- IC50 [6]: 10 to 29 µM

SMILES: O=C(O)c1ccc(Cl)c(N2C(=O)c3cc4cccc([N+](=O)[O-])c4cc3C2=O)c1 [Compound 21]
- IC50 [4]: 30 to 50 µM

SMILES: CCOC(=O)c1cccc(N2Cc3cc(C(=O)O)ccc3C2=O)c1 [Compound 15A]
- IC50 [5]: 30 to 50 µM
- IC50 [9]: 30 to 50 µM

SMILES: O=C(O)CN1C(=O)c2ccc(-c3ccc4c(c3)C(=O)N(CC(=O)O)C4=O)cc2C1=O [Compound 33C]
- IC50 [6]: > 50 µM

SMILES: O=C(O)CCCN1C(=O)c2cccc3cc(-c4nnn[nH]4)cc(c23)C1=O [Compound 46G]
- IC50 [5]: < 10 µM
- IC50 [8]: < 10 µM
- IC50 [2]: < 10 µM

SMILES: O=C(O)CC[C@H](C(=O)O)N1C(=O)c2ccc3c(=O)n4c5cc(C(=O)O)ccc5nc4c4ccc(c2c34)C1=O [Compound 8E]
- IC50 [10]: < 10 µM
